Data taken from a compilation of properties of binary mixtures (doi:10.1021/acs.jced.2c00024).
Some of these densities may be calculated back from excess volumes.

Experiment: xn = mol fraction of the nth substance listed
Conditions: 101 kPa

COCCn1cc[n+](C)c1.N#C[S-] + O=C1CCCO1
mass density [kg/m3]
Conditions | x1 = 0.1027 | x1 = 0.1999 | x1 = 0.3001 | x1 = 0.4001 | x1 = 0.5006 | x1 = 0.6015 | x1 = 0.7036 | x1 = 0.8038 | x1 = 0.9012 | x1 = 1
288.15 K | 1144.6 | 1152.8 | 1159.8 | 1165.5 | 1170.2 | 1174.1 | – | 1180.1 | 1182.3 | –
293.15 K | 1139.9 | 1148.4 | 1155.6 | 1161.5 | 1166.3 | 1170.3 | 1173.7 | – | 1178.9 | 1180.8
298.15 K | 1135.4 | 1144.1 | – | 1157.4 | 1162.4 | 1166.5 | 1170 | 1172.9 | 1175.3 | –
303.15 K | 1130.7 | 1139.7 | – | 1153.5 | 1158.6 | 1162.8 | 1166.4 | 1169.4 | 1171.9 | 1173.9
308.15 K | 1126.1 | 1135.4 | 1143.2 | 1149.5 | 1154.8 | – | 1162.9 | 1166 | – | 1170.6
313.15 K | – | 1131.1 | 1139 | 1145.5 | – | 1155.4 | – | 1162.3 | 1165 | 1167.1
318.15 K | 1117.2 | 1127 | – | – | 1147.4 | 1152 | 1155.9 | 1159.1 | 1161.8 | 1164
323.15 K | 1112.7 | – | 1131.1 | – | – | 1148.3 | – | 1155.6 | 1158.4 | 1160.6
328.15 K | 1108.2 | 1118.4 | 1126.9 | 1133.9 | 1139.8 | 1144.5 | 1148.7 | 1152.1 | – | 1157.2
333.15 K | – | 1114.1 | 1122.9 | 1130.1 | 1136.1 | 1141 | 1145.2 | 1148.7 | 1151.6 | 1154
338.15 K | 1099.2 | 1109.9 | 1118.9 | 1126.2 | 1132.3 | – | – | 1145.1 | 1148.2 | 1150.7
343.15 K | 1094.8 | 1105.8 | 1115 | 1122.4 | – | 1133.8 | – | 1141.8 | 1144.9 | 1147.4

O=C1CCCO1 + [S-]C#N.COCCN1C=[N+](C=C1)C
x2 = 0
Conditions | mass density [kg/m3]
288.15 K | 1133.7
293.15 K | 1128.7
298.15 K | 1123.9
303.15 K | 1118.8
308.15 K | 1113.9
318.15 K | 1104.4
323.15 K | 1099.6
328.15 K | 1094.7
333.15 K | 1089.9
338.15 K | 1085.2
343.15 K | 1080.5
